Data reported in publication PMC8948191.
These are yes or no findings as the source states them, for the method shown. For some of these results: In cells and extracts the contact can be indirect. Some results given as binding are weak or reduced against the parent protein; the word gives no strength. Where a sequence is shown, tags or fusion partners need not be part of it.

Sequences of proteins named here, by UniProt entry; tags and fusion partners are left off.
UniProt O00429: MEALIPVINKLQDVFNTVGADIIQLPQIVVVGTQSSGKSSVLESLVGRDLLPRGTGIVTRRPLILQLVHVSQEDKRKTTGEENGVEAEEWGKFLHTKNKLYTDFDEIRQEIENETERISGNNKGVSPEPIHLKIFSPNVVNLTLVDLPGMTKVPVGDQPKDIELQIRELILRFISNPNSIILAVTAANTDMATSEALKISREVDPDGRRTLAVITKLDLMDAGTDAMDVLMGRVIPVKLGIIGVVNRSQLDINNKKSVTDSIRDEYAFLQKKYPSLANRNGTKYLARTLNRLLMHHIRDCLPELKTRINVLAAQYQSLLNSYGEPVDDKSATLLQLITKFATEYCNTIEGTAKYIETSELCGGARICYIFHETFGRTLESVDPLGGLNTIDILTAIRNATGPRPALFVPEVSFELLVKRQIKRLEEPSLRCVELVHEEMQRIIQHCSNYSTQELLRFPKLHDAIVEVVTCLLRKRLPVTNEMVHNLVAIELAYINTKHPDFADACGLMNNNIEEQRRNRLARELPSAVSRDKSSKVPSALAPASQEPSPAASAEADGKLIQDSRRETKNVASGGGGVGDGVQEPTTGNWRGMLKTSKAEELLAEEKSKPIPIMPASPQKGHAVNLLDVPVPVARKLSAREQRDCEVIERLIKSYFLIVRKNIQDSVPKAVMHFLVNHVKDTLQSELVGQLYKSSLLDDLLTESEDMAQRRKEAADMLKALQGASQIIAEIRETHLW
UniProt Q7KN62: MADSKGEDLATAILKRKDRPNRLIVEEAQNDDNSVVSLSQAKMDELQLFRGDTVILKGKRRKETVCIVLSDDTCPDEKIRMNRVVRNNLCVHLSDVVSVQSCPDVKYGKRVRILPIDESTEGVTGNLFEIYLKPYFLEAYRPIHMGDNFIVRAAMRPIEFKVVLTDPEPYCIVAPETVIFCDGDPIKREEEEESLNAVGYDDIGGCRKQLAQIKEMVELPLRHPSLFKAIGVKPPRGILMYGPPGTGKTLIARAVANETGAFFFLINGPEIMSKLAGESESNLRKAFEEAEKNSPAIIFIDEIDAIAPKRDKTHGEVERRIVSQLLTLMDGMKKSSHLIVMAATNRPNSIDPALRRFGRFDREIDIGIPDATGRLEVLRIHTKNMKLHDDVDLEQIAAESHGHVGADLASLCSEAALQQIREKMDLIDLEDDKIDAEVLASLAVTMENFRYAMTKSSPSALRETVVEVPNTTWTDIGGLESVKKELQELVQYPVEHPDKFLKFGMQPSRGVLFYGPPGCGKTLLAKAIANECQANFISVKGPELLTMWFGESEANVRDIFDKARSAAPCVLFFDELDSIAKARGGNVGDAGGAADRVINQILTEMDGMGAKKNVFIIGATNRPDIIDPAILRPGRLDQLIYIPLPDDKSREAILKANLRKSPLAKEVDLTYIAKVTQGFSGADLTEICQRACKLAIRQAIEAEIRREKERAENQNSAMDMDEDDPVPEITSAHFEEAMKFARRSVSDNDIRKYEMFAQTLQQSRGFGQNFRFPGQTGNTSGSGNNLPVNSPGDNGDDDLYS
UniProt Q9NQG6: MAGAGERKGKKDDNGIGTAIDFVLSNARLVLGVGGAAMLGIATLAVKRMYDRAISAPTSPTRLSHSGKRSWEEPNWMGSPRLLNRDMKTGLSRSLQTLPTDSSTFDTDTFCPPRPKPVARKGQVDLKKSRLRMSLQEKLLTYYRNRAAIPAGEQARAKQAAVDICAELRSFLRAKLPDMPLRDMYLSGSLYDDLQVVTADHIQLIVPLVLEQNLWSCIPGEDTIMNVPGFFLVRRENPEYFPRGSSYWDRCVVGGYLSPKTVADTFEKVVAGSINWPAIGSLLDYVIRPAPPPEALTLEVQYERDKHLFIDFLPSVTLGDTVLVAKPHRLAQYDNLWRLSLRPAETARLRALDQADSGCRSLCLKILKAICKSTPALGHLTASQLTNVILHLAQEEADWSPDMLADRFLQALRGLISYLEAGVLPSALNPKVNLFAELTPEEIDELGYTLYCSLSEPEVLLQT
UniProt Q9VQE0: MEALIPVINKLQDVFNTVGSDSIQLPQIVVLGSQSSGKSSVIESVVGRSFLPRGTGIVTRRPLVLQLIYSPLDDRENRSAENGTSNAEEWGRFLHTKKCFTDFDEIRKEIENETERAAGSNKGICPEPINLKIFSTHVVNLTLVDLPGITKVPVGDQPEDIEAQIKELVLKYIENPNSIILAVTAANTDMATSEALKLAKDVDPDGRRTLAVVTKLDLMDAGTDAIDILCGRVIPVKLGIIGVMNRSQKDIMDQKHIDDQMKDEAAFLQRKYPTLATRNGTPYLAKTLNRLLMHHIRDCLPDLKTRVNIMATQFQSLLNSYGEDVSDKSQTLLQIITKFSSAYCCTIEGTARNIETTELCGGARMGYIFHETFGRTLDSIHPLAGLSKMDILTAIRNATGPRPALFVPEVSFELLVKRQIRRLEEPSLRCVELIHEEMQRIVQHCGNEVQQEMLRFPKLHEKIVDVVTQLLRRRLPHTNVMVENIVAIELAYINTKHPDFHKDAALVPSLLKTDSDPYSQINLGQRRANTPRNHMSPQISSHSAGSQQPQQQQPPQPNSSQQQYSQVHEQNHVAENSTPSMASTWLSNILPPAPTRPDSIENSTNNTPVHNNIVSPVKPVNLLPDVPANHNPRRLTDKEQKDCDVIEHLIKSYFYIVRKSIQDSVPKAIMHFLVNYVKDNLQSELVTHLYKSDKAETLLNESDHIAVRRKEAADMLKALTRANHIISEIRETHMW

Tests used:
[1] = biological target: T1, LAMP1–MiD49 (FLAG-tagged MiD49 fused to LAMP1) (UniProt Q96C03); assay: ectopic recruitment to lysosomes by a LAMP1 fusion (immunofluorescence); HeLa cells expressing FLAG-tagged LAMP1 fusions; endogenous Drp1 seen with a mouse anti-Drp1 antibody; colocalisation by Pearson's coefficient
T1 sequence: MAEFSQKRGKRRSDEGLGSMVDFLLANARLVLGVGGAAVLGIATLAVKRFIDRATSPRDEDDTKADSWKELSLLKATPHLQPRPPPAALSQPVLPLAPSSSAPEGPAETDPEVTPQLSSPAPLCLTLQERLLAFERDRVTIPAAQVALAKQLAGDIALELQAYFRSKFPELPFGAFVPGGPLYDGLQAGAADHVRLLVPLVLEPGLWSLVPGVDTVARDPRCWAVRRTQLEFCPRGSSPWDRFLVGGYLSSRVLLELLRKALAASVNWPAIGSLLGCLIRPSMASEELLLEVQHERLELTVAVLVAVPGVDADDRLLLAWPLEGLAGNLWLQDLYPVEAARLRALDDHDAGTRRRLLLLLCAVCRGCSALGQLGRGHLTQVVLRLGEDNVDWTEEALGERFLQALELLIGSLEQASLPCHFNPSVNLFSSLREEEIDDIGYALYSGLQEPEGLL

[2] = biological target: T2, FLAG-tagged Clu (Drosophila Clueless) (Drosophila) (UniProt A1ZAB5); assay: co-IP; lysates (RIPA buffer) of Drosophila S2 cells transfected with tagged constructs; IP with mouse anti-FLAG or mouse anti-Myc antibody, Dynabeads Protein G; western blot
T2 sequence: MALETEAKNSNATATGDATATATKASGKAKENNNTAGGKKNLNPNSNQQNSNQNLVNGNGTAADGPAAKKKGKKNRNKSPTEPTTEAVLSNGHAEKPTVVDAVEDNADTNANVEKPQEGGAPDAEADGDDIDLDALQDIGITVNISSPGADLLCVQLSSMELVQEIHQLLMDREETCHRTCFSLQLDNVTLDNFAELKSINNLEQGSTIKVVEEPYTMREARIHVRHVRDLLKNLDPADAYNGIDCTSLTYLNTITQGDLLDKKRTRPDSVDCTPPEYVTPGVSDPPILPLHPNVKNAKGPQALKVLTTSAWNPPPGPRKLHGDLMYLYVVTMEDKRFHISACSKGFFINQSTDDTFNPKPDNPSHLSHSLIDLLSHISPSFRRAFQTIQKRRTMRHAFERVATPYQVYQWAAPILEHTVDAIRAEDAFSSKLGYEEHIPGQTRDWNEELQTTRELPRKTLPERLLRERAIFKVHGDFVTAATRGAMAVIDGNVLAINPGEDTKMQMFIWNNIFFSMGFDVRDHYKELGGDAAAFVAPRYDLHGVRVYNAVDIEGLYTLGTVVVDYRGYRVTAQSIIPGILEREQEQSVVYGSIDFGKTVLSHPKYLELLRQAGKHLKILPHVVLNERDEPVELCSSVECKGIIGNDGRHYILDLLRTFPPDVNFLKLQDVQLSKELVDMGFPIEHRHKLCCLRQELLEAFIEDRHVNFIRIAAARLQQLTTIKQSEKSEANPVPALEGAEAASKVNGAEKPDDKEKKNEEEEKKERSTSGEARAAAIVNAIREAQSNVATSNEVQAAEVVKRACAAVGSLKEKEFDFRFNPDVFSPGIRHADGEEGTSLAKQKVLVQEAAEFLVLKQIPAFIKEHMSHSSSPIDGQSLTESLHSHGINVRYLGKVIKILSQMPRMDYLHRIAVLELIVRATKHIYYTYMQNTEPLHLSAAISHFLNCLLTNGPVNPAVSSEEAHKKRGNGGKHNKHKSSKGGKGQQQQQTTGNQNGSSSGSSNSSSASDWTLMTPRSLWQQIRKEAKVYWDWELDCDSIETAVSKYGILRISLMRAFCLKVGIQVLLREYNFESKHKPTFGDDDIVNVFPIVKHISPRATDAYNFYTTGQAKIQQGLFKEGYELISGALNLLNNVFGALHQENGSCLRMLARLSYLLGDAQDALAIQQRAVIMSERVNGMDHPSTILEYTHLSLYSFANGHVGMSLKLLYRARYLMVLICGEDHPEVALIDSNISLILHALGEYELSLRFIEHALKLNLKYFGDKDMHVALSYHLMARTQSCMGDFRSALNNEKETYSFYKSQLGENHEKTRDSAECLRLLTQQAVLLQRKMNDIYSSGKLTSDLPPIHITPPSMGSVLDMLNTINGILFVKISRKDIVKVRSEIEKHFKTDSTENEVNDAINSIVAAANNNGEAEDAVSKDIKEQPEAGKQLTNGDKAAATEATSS

FLAG-CLUH (human) = biological target: T3, FLAG-CLUH (human) (UniProt O75153); assay: co-IP; lysates (RIPA buffer) of HeLa cells transfected with the indicated constructs; IP with mouse anti-FLAG antibody, Dynabeads Protein G; western blot
T3 sequence: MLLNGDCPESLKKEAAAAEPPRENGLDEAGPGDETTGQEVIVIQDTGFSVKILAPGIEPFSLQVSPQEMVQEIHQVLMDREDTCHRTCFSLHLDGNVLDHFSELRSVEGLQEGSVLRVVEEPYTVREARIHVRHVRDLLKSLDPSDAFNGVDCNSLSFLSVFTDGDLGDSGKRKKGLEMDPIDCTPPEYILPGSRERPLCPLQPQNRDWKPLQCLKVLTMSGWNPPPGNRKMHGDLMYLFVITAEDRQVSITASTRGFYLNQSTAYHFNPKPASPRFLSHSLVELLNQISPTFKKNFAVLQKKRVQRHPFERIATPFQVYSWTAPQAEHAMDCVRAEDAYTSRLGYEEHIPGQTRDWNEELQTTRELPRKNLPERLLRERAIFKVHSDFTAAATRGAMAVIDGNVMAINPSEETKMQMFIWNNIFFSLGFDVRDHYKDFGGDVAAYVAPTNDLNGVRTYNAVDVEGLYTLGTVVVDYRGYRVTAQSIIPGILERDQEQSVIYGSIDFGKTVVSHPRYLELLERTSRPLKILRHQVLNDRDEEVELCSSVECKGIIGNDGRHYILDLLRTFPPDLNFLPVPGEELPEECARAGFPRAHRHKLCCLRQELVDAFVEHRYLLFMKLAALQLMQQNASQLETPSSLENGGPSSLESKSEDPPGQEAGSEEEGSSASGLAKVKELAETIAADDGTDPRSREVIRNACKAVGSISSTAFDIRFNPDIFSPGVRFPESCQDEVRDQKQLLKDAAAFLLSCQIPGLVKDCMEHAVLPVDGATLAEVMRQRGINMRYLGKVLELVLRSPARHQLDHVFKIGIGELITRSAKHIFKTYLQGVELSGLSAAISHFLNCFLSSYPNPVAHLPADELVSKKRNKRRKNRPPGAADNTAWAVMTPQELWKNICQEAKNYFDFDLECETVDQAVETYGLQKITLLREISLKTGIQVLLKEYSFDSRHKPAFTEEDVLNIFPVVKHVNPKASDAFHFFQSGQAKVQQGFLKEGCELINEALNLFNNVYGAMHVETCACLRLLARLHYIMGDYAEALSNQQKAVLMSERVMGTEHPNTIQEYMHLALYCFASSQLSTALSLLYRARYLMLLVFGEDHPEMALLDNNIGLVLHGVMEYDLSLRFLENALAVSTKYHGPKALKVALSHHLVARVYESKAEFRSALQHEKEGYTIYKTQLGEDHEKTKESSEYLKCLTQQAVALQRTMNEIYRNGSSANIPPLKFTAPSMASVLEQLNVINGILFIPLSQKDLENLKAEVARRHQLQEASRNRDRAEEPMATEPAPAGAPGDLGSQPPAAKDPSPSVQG

Substance | binding [2] | other results
Drp1, endogenous in HeLa cells (from UniProt O00429 1-736) | – | binding [1]: binds
Valosin-containing protein (VCP), overexpressed in S2 cells (from UniProt Q7KN62 1-801) | no binding | –
MiD51 (in pRK5-Myc) (from UniProt Q9NQG6 1-463) | – | binding (FLAG-CLUH (human)): no binding
Myc-tagged Drp1 (Drosophila) (from UniProt Q9VQE0 1-735) | binds | –
